Measured values as given in the supplement of paper PMC12578646, “Prodrug florfenicol amine is activated by intrinsic resistance to target Mycobacterium abscessus” (Nature Microbiology, 2025).
M. abscessus ATCC 19977 and its deletion, point and complemented mutants after 5 days of drug at 37 °C plus 24 h of resazurin. Growth in % of untreated wells at the dose given (lower = more inhibition); checkerboards give % inhibition (higher = more inhibition); IC50 from the fitted curve (lower = more potent). No active / inactive call. IC50 values come from the same 384-well curves. Growth is not capped and can exceed 100%. The direction of the checkerboard scale is read from the raw signals. Capreomycin is a mixture.

Key:
[1] = system: Mycobacterium abscessus ATCC 19977 WhiB7 L37P; assay: growth relative to untreated wells; higher = more growth (less inhibition)
Description: (§1)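 384-well two-fold dose series, two replicates; 5 days at 37 °C, then 24 h with resazurin; fluorescence scaled to growth and killed controls.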

[2] = system: Mycobacterium abscessus ATCC 19977 ΔwhiB7; assay: as above
Description: as §1

[3] = system: Mycobacterium abscessus ATCC 19977 WhiB7 R76del; assay: as above
Description: as §1

[4] = system: Mycobacterium abscessus ATCC 19977 Δeis2; assay: as above
Description: as §1

[5] = system: Mycobacterium abscessus ATCC 19977 Eis2 Y284*; assay: as above
Description: as §1

[6] = system: Mycobacterium abscessus ATCC 19977 WhiB7 F24fs; assay: as above
Description: as §1

[7] = system: Mycobacterium abscessus ATCC 19977 Eis2 Y227D; assay: as above
Description: as §1

[8] = system: Mycobacterium abscessus ATCC 19977 WhiB7 A51T; assay: as above
Description: as §1

[9] = system: Mycobacterium abscessus ATCC 19977 Eis2 E120fs; assay: as above
Description: as §1

[10] = system: Mycobacterium abscessus ATCC 19977 WhiB7 T70fs; assay: as above
Description: as §1

[11] = system: Mycobacterium abscessus ATCC 19977 Eis2 T258R; assay: as above
Description: as §1

[12] = system: Mycobacterium abscessus ATCC 19977 Eis2 Y255*; assay: as above
Description: as §1

[13] = system: Mycobacterium abscessus ATCC 19977 ΔwhiB7; assay: growth relative to untreated wells; higher = more growth
Description: (§2)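 Two-fold dose series, three replicates; 5 days at 37 °C, then 24 h with resazurin; fluorescence scaled to growth and killed controls.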

[14] = system: Mycobacterium abscessus ATCC 19977; assay: as above
Description: as §2

[15] = system: Mycobacterium abscessus ATCC 19977 Δcat; assay: as above
Description: as §2

CC[C@H]1OC(=O)[C@H](C)[C@@H](O[C@H]2C[C@@](C)(OC)[C@@H](O)[C@H](C)O2)[C@H](C)[C@@H](O[C@@H]2O[C@H](C)C[C@H](N(C)C)[C@H]2O)[C@](C)(O)C[C@@H](C)C(=O)[C@H](C)[C@@H](O)[C@]1(C)O [erythromycin]
Conditions	growth [%]
[1], 0.03125 µg/mL	108.2
[1], 0.0625 µg/mL	107
[1], 0.125 µg/mL	114
[1], 0.25 µg/mL	116
[1], 0.5 µg/mL	87.8
[1], 1 µg/mL	16.2
[1], 2 µg/mL	0.179
[1], 4 µg/mL	-2.18
[1], 8 µg/mL	-3.35
[1], 16 µg/mL	-2.85
[1], 32 µg/mL	-2.67
[1], 64 µg/mL	-1.76
[2], 0.03125 µg/mL	97.4
[2], 0.0625 µg/mL	111
[2], 0.125 µg/mL	112
[2], 0.25 µg/mL	114
[2], 0.5 µg/mL	85
[2], 1 µg/mL	7.71
[2], 2 µg/mL	-2.73
[2], 4 µg/mL	-1.9
[2], 8 µg/mL	-5.83
[2], 16 µg/mL	-4.97
[2], 32 µg/mL	-4.65
[2], 64 µg/mL	-4.28
[3], 0.03125 µg/mL	103
[3], 0.0625 µg/mL	112.5
[3], 0.125 µg/mL	115
[3], 0.25 µg/mL	110
[3], 0.5 µg/mL	73.9
[3], 1 µg/mL	6.82
[3], 2 µg/mL	-1.06
[3], 4 µg/mL	-2.74
[3], 8 µg/mL	-3.21
[3], 16 µg/mL	-2.31
[3], 32 µg/mL	-2.56
[3], 64 µg/mL	-1.48
[4], 0.03125 µg/mL	104
[4], 0.0625 µg/mL	104
[4], 0.125 µg/mL	115
[4], 0.25 µg/mL	93.4
[4], 0.5 µg/mL	84.1
[4], 1 µg/mL	15.8
[4], 2 µg/mL	8.58
[4], 4 µg/mL	-2.86
[4], 8 µg/mL	-3.31
[4], 16 µg/mL	-3.55
[4], 32 µg/mL	-3.23
[4], 64 µg/mL	-2.15
[5], 0.03125 µg/mL	105
[5], 0.0625 µg/mL	105
[5], 0.125 µg/mL	113
[5], 0.25 µg/mL	119.2
[5], 0.5 µg/mL	106
[5], 1 µg/mL	71.6
[5], 2 µg/mL	21.6
[5], 4 µg/mL	4.53
[5], 8 µg/mL	-0.0215
[5], 16 µg/mL	-1.25
[5], 32 µg/mL	-1.87
[5], 64 µg/mL	-1.52
[6], 0.03125 µg/mL	105
[6], 0.0625 µg/mL	109
[6], 0.125 µg/mL	114
[6], 0.25 µg/mL	104
[6], 0.5 µg/mL	75.9
[6], 1 µg/mL	11
[6], 2 µg/mL	-1.03
[6], 4 µg/mL	-3.1
[6], 8 µg/mL	-3.14
[6], 16 µg/mL	-3.04
[6], 32 µg/mL	-2.72
[6], 64 µg/mL	-1.36
[7], 0.03125 µg/mL	103
[7], 0.0625 µg/mL	112.6
[7], 0.125 µg/mL	115
[7], 0.25 µg/mL	119
[7], 0.5 µg/mL	119
[7], 1 µg/mL	71.4
[7], 2 µg/mL	30.9
[7], 4 µg/mL	5.19
[7], 8 µg/mL	1.84
[7], 16 µg/mL	0.105
[7], 32 µg/mL	-0.668
[7], 64 µg/mL	0.668
[8], 0.03125 µg/mL	106
[8], 0.0625 µg/mL	121
[8], 0.125 µg/mL	117.1
[8], 0.25 µg/mL	118.77
[8], 0.5 µg/mL	111
[8], 1 µg/mL	23.6
[8], 2 µg/mL	2.97
[8], 4 µg/mL	-3.02
[8], 8 µg/mL	-4.25
[8], 16 µg/mL	-3.01
[8], 32 µg/mL	-2.53
[8], 64 µg/mL	-1.76
[9], 0.03125 µg/mL	98.9
[9], 0.0625 µg/mL	111
[9], 0.125 µg/mL	120.3
[9], 0.25 µg/mL	122
[9], 0.5 µg/mL	125
[9], 1 µg/mL	82.2
[9], 2 µg/mL	34.5
[9], 4 µg/mL	4.05
[9], 8 µg/mL	0.0559
[9], 16 µg/mL	-0.41
[9], 32 µg/mL	-2.06
[9], 64 µg/mL	-1.13
[10], 0.03125 µg/mL	102
[10], 0.0625 µg/mL	104
[10], 0.125 µg/mL	108
[10], 0.25 µg/mL	92.8
[10], 0.5 µg/mL	62.3
[10], 1 µg/mL	5.36
[10], 2 µg/mL	-2.67
[10], 4 µg/mL	-5.17
[10], 8 µg/mL	-5.93
[10], 16 µg/mL	-4.77
[10], 32 µg/mL	-4.21
[10], 64 µg/mL	-2.99
[11], 0.03125 µg/mL	91.3
[11], 0.0625 µg/mL	109
[11], 0.125 µg/mL	111
[11], 0.25 µg/mL	108
[11], 0.5 µg/mL	90.08
[11], 1 µg/mL	32.7
[11], 2 µg/mL	10.1
[11], 4 µg/mL	-0.187
[11], 8 µg/mL	-0.918
[11], 16 µg/mL	-2.636
[11], 32 µg/mL	-2.55
[11], 64 µg/mL	-1.81
[12], 0.03125 µg/mL	102
[12], 0.0625 µg/mL	107
[12], 0.125 µg/mL	117
[12], 0.25 µg/mL	118.9
[12], 0.5 µg/mL	107.8
[12], 1 µg/mL	56.6
[12], 2 µg/mL	19.1
[12], 4 µg/mL	1.41
[12], 8 µg/mL	-1.45
[12], 16 µg/mL	-3.08
[12], 32 µg/mL	-3.73
[12], 64 µg/mL	-2.9

CS(=O)(=O)c1ccc([C@@H](O)[C@H](N)CO)cc1 [thiamphenicol amine]
growth [%]
Conditions	1 µg/mL	2 µg/mL	4 µg/mL	8 µg/mL	16 µg/mL	32 µg/mL	64 µg/mL	128 µg/mL	256 µg/mL	512 µg/mL
[13]	89	88.7	92.1	83.2	90.71	97.6	107	102	94.1	2.08
[14]	97.7	92.2	96.7	88.9	94.6	88.3	89.8	82.4	74.3	31.4
[15]	88.5	97.7	81.9	65.4	53.7	37.4	18	-1.25	-2.68	-0.742
